From patent US20250282874A1 (SUZHOU TRANSCENTA THERAPEUTICS, published 2025)

Assays:
human Activin A = molecular target: T1, human Activin A (human, UniProt P08476 311-426); experiment: ELISA, antigen (0.5 ug/mL) coated, anti-human Fc-HRP, OD450
T1 sequence (looked up): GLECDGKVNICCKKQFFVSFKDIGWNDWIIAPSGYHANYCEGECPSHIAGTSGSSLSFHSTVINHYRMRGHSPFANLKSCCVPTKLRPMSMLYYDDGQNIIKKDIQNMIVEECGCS

human LAP = molecular target: T2, human LAP (human, UniProt P01137 in part); experiment: as above
T2 construct: domain: LAP

human TGFβ1 = molecular target: T3, human TGFβ1 (human, UniProt P01137 in part); experiment: ELISA; TGFβ1 coated, fusion titrated, anti-human Fc-HRP
T3 construct: also called hTGFβ-1; TGFb1

[1] = molecular target: Mouse TGFβ1 (Novoprotein, CK33) (mouse, UniProt P04202 in part); experiment: as above
B7-H2 = molecular target: T4, B7-H2 (UniProt O75144 19-258, limits assumed); experiment: ELISA, antigen (0.5 ug/mL) coated, anti-human Fc-HRP, OD450
T4 sequence (looked up): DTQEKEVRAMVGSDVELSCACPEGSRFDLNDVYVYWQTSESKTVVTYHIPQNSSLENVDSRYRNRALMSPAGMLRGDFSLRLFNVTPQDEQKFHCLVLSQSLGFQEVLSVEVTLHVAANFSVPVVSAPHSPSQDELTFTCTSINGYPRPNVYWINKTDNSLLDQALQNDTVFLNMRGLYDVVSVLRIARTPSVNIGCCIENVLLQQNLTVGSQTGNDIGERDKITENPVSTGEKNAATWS

VISTA = VISTA (UniProt Q9H7M9 33-194, limits assumed); experiment: as above
B7-H3 = molecular target: T5, B7-H3 (UniProt Q5ZPR3 29-461, limits assumed); experiment: as above
T5 sequence (looked up): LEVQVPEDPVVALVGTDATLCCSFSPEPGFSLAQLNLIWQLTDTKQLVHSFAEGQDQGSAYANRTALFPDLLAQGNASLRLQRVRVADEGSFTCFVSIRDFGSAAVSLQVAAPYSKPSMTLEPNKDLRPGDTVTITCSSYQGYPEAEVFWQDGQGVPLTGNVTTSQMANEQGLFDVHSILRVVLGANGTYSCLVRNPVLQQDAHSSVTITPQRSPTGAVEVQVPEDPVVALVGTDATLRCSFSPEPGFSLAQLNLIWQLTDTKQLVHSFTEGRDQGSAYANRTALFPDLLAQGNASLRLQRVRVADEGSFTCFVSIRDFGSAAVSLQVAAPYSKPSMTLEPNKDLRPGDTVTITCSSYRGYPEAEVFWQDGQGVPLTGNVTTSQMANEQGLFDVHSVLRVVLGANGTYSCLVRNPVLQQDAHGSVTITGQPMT

B7-2 = molecular target: T6, B7-2 (UniProt P42081 24-247, limits assumed); experiment: as above
T6 construct: also called CD86
T6 sequence (looked up): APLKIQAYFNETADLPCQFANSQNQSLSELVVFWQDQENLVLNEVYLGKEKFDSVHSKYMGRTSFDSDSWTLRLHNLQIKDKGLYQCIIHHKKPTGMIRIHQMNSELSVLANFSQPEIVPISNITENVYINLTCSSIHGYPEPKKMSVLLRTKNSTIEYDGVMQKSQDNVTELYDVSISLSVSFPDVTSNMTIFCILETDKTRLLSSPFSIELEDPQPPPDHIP

B7-H4 = molecular target: T7, B7-H4 (UniProt Q7Z7D3 29-258, limits assumed); experiment: as above
T7 sequence (looked up): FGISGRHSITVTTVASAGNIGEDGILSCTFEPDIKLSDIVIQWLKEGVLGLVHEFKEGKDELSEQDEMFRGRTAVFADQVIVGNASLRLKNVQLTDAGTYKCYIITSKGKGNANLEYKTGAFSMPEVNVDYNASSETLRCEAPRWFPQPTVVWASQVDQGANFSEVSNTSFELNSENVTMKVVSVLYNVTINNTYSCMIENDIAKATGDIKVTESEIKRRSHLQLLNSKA

B7-1 = molecular target: T8, B7-1 (UniProt P33681 35-242, limits assumed); experiment: as above
T8 construct: also called CD80
T8 sequence (looked up): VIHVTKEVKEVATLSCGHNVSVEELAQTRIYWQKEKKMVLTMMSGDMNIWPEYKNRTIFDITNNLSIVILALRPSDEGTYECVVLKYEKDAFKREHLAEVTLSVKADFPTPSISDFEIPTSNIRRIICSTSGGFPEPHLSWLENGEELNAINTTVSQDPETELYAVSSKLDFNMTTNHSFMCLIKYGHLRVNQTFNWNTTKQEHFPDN

UniProt P04202, sequence (P04202 279-390 limits assumed): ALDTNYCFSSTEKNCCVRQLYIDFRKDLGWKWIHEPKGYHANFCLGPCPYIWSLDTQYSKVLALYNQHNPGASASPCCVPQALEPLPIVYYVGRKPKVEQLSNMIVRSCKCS

B1: AM4B6-hIgG1-TGFβRII′ (other)
heavy: QVQLVQSGAEVKKPGASVKVSCKASGYVFTDYYMNWVRQAPGQSLEWMGDINPNNAETLYNHKFKGRVTVTVDKSISTAYMELSRLRSDDTAVYYCVKWGDGPFAYWGQGTLVTVSS[human IgG1 constant region omitted here]GGGGSGGGGSGGGGSGGGGSGGAVKFPQLCKFCDVRFSTCDNQKSCMSNCSITSICEKPQEVCVAVWRKNDENITLETVCHDPKLPYHDFILEDAASPKCIMKEKKKPGETFFMCSCSSDECNDNIIFSEEYNTSNPD
light: DIQMTQSPSSLSASVGDRVTITCKASQNVGAAVAWYQQKPGKAPKLLIYSVSDRYTGVPSRFSGSGSGTDFTLTISSLQPEDIATYYCQQYSNYPTFGQGTKLEIKRTVAAPSVFIFPPSDEQLKSGTASVVCLLNNFYPREAKVQWKVDNALQSGNSQESVTEQDSKDSTYSLSSTLTLSKADYEKHKVYACEVTHQGLSSPVTKSFNRGEC
In the case of B1, the binding result (human Activin A) is reported as “no binding (tested: 100 nM)”, the binding result (human LAP) is reported as “no binding (tested: 100 nM)” and the EC50 (human TGFβ1) is reported as 0.748 nM. The EC50 [1] was 0.8 nM, the binding result (B7-H2) was “no binding (tested: 100 nM)” and the binding result (VISTA) was “no binding (tested: 100 nM)”. B1: no binding (tested: 100 nM) (B7-H3); no binding (tested: 100 nM) (B7-2); no binding (tested: 100 nM) (B7-H4). B1: no binding (tested: 100 nM) (B7-1).
